US12447159B2 (AELIS FARMA, priority 2018, dated 2025)

How the values were obtained:
[1] = test system: THC-induced psychomotor stimulation; test: THC-induced increase in psychomotor stimulation (open field locomotion); settings: per os 3 h before THC 0.3 mg/kg; mice
[2] = test system: THC-induced dopamine release in the nucleus accumbens; test: THC-induced dopamine release in the nucleus accumbens (microdialysis); format: in vivo; settings: per os; THC 1 mg/kg ip; rats
Method: THC was solubilized in 0.9% NaCl containing ethanol (2%) and Tween80 (2%) that was also used as control vehicle (VEHTHC) and administered intraperitoneally in a volume of 1 ml/kg.
Rats (n=5-7 per group) were implanted under anesthesia with a guide-cannula just above the shell sub-regions of the right Nac. […] Dialysates were collected every 15 minutes. 180 minutes after the beginning of the perfusion, all animals received an injection of THC. DA outflow was then monitored for 120 minutes. The concentrations of DA in dialysate samples were analyzed by reverse-phase high-performance liquid chromatography (HPLC) coupled with electrochemical detection, as described previously (Leggio et al., 2009). DA content in each sample was expressed as the percentage of the average baseline level calculated from the three fractions preceding THC administration. The area under the curve (AUC) was calculated for each group from sampling time 0 min to 60 min after THC injection.

[3] = Pharmacokinetics in humans (healthy volunteers); settings: single oral 0.2, 0.6, 2 mg/subject
[4] = test system: DHEA, allopregnanolone and testosterone; test: Conversion in downstream steroids, humans (GC/MS-MS); format: in vivo; settings: 0.2, 0.6 and 2 mg/subject
Method: In all these studies plasma concentrations of steroids were measured by gas chromatography-tandem mass spectrometry (GC/MS-MS).

[5] = test system: spontaneous behaviour in mice; test: Spontaneous behaviour in the home cage (24 h video analysis); settings: 15 mg/kg, 24 hours after administration

SMILES: COc1ccc(CO[C@H]2CC[C@@]3(C)C(=CC[C@H]4[C@@H]5CC[C@H](C(C)=O)[C@@]5(C)CC[C@@H]43)C2)cc1 [3pMBP, 3β-(4-methoxybenzyloxy)pregn-5-en-20-one]
- % inhibition [1]: 100%
- ID50 [1]: 0.36 µg/kg
- ID100 [1]: 1.5 µg/kg
- ID50 [2]: 5 µg/kg
- ID100 [2]: 15 µg/kg
- Absorption in humans (plasma concentration after oral administration) [3]: good absorption
- Changes in active steroids [4]: no changes in active steroids were observed
- Effects on behaviour per se (spontaneous behaviour in the home cage) [5]: no detectable effects on behaviour per se
